Assay results as given in ChEMBL document CHEMBL4888484, “Replenishing the malaria drug discovery pipeline: Screening and hit evaluation of the MMV Hit Generation Library 1 (HGL1) against asexual blood stage Plasmodium falciparum ,using a nano luciferase reporter read-out” (2022).
Screen size: about 150,000 compounds; about 540 (0.36%) showed an effect of 50% or more. The list shows a part of the results.

system: Plasmodium falciparum; test: Primary screen in NF54 nanoGlo assay, in single point, at 2uM, 72h; a lower Z score goes with more inhibition; assay type: functional, Erythrocyte; details: timepoint 72 hour

Row | SMILES | % Inhibition [%] | Z score
1 | CCN(CC)c1onc(-c2ccccc2)c1CN(CC1CC1)C[C@H](O)COc1ccccc1 | -3 | 0.42
2 | Cc1ccccc1OCC(=O)N1C2CCC1CC(=C1CC1)C2 | 9 | -1.13
3 | Cc1ccccc1OC[C@@H](O)Cn1nnc2ccccc21 | -18 | 1.61
4 | CCC(C)C(=O)Nc1c(C(=O)OC)n(CC2CCCO2)c2ncc(NCc3cccc(F)c3F)cc12 (stereo not drawn) | -10 | 1.11
5 | CN(C)[C@H]1CCCN(Cc2ccc3c4c(cccc24)C(=O)OC3)CC1 | -5 | 1.02
6 | CC(C)(C)c1cc(CN2CCC3(CC2)[C@H](O)C[C@@H]3O)n[nH]1 | -1 | 0.15
7 | CN1C(=O)[C@@H]2CC[C@H]1CN(CCCC(=O)c1ccc(F)cc1)C2 | -5 | 0.75
8 | Cc1nc(CCN(C)C(=O)c2cc(N)ccn2)no1 | -9 | 1.08
9 | Cc1ncccc1C(=O)N1CCC2(CC1)CC(=O)N(CC(C)C)C2 | -12 | 1.24
10 | O=C(CCc1ccccc1)N1CCC2(CC1)N(CC1CC1)C(=O)C[S@+]2[O-] | -8 | 1.48
11 | COc1ccc(CNC(=O)[C@@H]2CCN(c3ccc(Cl)cc3)C2=O)cc1OC | -1 | 0.14
12 | C[C@@H](C(=O)NC(=O)NC1CCCCC1)N(C)Cc1ccc(F)cc1F | -5 | 0.48
13 | CN(CC1CN(c2ccccc2)C(=O)O1)CC1CN(C2CC2)C(=O)O1 (stereo not drawn) | -1 | 0.19
14 | Fc1cnc(NCC2(n3cccn3)CC2)nc1 | -10 | 1.47
15 | CC1CN(Cn2ncnc2-c2ccccc2Cl)CC(C)O1 (stereo not drawn) | 3 | -0.45
16 | Cc1ccccc1OCC(=O)N1CCC[C@H](COCc2ccccc2)C1 | -6 | 1.2
17 | CCC(=O)N1CCC[C@H](c2[nH]ncc2-c2ccccc2F)C1 | -7 | 1.37
18 | Cc1ccc(NC(=O)[C@@H]2CNC[C@H](C(=O)NCc3sccc3C)C2)cn1 | 2 | -0.3
19 | COC1(C)CC(Nc2ncnc3nc[nH]c23)C1(C)C (stereo not drawn) | -13 | 1.91
20 | COc1cc(-c2cc(C(=O)Nc3cc(S(=O)(=O)Nc4ccc(Cl)cc4)ccc3N3CCCC3)c3ccccc3n2)cc(OC)c1OC | -7 | 1.32
21 | Cc1nnc(CN(C)C(=O)Nc2ccnn2CC2CCCCC2)o1 | 2 | -0.3

Row | SMILES | % Inhibition [%] | Z score
22 | O=C(NCCc1ccccc1)c1cn2c(n1)[C@@H](c1ccccc1)N(CC1CCCCC1)CC2 | -8 | 1.17
23 | Fc1ccc(COc2cccn3cc(-c4ccc(Cl)cc4)nc23)cc1 | 0 | 0.02
24 | Cc1noc(C)c1CC(=O)N1CC[C@H](OCc2ccccc2)C1 | 3 | -0.53
25 | O=c1c2c(F)cccc2ncn1C1CCS(=O)(=O)CC1 | -23 | 2.21
26 | O=C(Cc1cccs1)N1CCCN(c2nnc3ccccn23)CC1 | -5 | 0.52
27 | O=C1[C@@H](N2CCS(=O)(=O)CC2)CCN1c1ccc(F)c(Cl)c1 | -17 | 2.33
28 | O=C(CNC(=O)c1ccccc1Br)Nc1ccc(N2CCCCC2)cc1 | -12 | 1.38
29 | CCN(CC)C(=O)c1cnc2nc(C)ccc2c1Nc1ccc(F)cc1F | -2 | 0.4
30 | CO[C@@H]1CCCCC[C@@H]1S(=O)(=O)NCC(C)c1nccs1 (stereo partly drawn) | -1 | 0.12
31 | CC(C)(C)C(=O)NCCc1nc(N)cc(O)n1 | 1 | -0.12
32 | CCCc1nnc(NC(=O)NC[C@](C)(O)c2ccc(C)o2)s1 | -8 | 1.52
33 | CC(C)n1nccc1S(=O)(=O)N[C@H]1COC[C@@H]1N1CCCC1 | 3 | -0.53
34 | CC(=O)N[C@@H]1CN(Cc2cccnc2C(F)(F)F)C[C@H]1c1nccn1C | -11 | 1.75
35 | Cc1ccc(-c2noc(CCN(CC(C)C)C(=O)c3ccccc3)n2)cc1 | -15 | 2.51
36 | COc1ccc(CC(=N)Nn2cnnc2)cc1 | -20 | 2.52
37 | NCCCOc1cc(Cl)ccc1C(=O)N1CCc2nc[nH]c(=O)c2C1 | 9 | -1.16
38 | Cc1ccc(-c2nc3[nH]c(CN4CCCCCC4)cc(=O)n3n2)cc1C | -8 | 1.27
39 | O=C1CC(c2cccc(NC(=O)CCc3ccccn3)c2)CC(=O)N1 | 33 | -0.41
40 | CN=C(NCc1nc(C)c(C)o1)NC1CC(C)N(c2ccccc2)C1 (stereo not drawn) | -2 | 0.32
41 | O=S(=O)(CC1CCCC1)NCCN1CCC[C@H](CO)C1 | -11 | 1.05
42 | Cc1cc(C(=O)N2CCCN(C3CC3)CC2)c(C)n1C(C)C | -15 | 2.87

Row | SMILES | % Inhibition [%] | Z score
43 | CC1CCC(C(=O)N2CCOC3CCCCC32)O1 (stereo not drawn) | -2 | 0.29
44 | C[C@H]1CN(c2ccc3cn[nH]c3c2)C(=O)CN1C(=O)Cc1cnccn1 | -1 | 0.22
45 | CCOc1ccccc1CN1CCC(Cc2ccc(C(=O)N3CCOCC3)cc2)CC1 | 3 | -0.45
46 | NC(=O)N1CCC[C@H]1C(=O)NCCCc1ccccc1Cl | 4 | -0.77
47 | Cc1cnccc1NC(=O)NCC1(O)CCCC1 | 10 | -1.48
48 | CCOc1cc(C(c2c(C)n(C)n(-c3ccccc3)c2=O)c2c(C)n(C)n(-c3ccccc3)c2=O)ccc1OCc1ccccc1 | 75 | -5.78
49 | COc1cc(-c2nc(=O)c(CCC(=O)N3CCN(C)CC3)n[nH]2)ccc1OCc1ccccc1F | -5 | 1.04
50 | Cc1cc(F)ccc1OC1(C(=O)O)CCN(Cc2ccoc2)CC1 | -9 | 1.35
51 | O=C(Nc1cccc(S(=O)(=O)N2CCOCC2)c1)c1ccco1 | -17 | 2.93
52 | COc1ccc(OC)c(NC(=O)c2cccc(N3C(=O)C4C5CCC(C5)C4C3=O)c2)c1 (stereo not drawn) | -2 | 0.35
53 | Cc1ncc(C(=O)N(C)C[C@@H]2C[C@H](F)CN2c2ccncn2)c(C)n1 | -1 | 0.15
54 | CC(C)CCN1CC[C@H](c2nc3ccccc3[nH]2)C1 | 33 | -3.69
55 | COc1cccc(-c2ccnc(-n3ncc(C(=O)NCCN4CCOCC4)c3C3CC3)n2)c1 | -13 | 1.69
56 | O=C(Nc1ccnn1C1CCN(Cc2ccc(-n3cccn3)cc2)CC1)c1cccnc1 | 4 | -0.48
57 | CC(=O)c1ccc(N(Cc2c(C)noc2C)S(C)(=O)=O)cc1 | -1 | 0.14
58 | Cc1ccc(O)c(CNc2ccc(C(=O)N3CCCC[C@@H]3C)cc2)n1 | -13 | 2.26
59 | CCCCN(CCC(=O)Nc1nnc(-c2ccc(C(F)(F)F)cc2)s1)C(=O)C1CCC1 | -13 | 1.33
60 | CCCCc1c(C)[nH]c2nc(N(Cc3ccc(F)cc3)C(=O)c3ccccc3F)nn2c1=O | -14 | 1.43
61 | Cc1c(CN(C)C(=O)c2ncn(C(C)(C)C)n2)cnn1C | -7 | 0.89
62 | CC1CN(Cc2ccccn2)CCC1NC(=O)c1cccnc1O (stereo not drawn) | -2 | 0.34
63 | c1csc(-c2csc([C@@H]3CCCO3)n2)n1 | 0 | -0.07

Row | SMILES | % Inhibition [%] | Z score
64 | Cc1ccc(NC(=O)N2C[C@@H](C)N(C)[C@@H](C)C2)c(C)n1 | -1 | 0.13
65 | CC(C)CN1CC[C@H](N(C)C)[C@H](CCC(=O)O)C1 | -8 | 0.97
66 | Cc1nc(-c2ccc(Br)cc2Cl)nn1CN1CCOC[C@@H]1C | -10 | 1.43
67 | COc1cc(Cn2nnc(C3CC3)n2)ccn1 | 7 | -0.87
68 | O=C(N[C@H]1CNCCC1(F)F)c1scnc1C1CC1 | 3 | -0.45
69 | CN(C)CC(=O)N1CCN(Cc2ccccc2)[C@@H]2CS(=O)(=O)C[C@@H]21 | -11 | 1.7
70 | Nc1nc(NC2CC2)cc(-c2ccc(C(=O)N3CCCCCC3)cc2)n1 | -16 | 1.46
71 | O=C(CCCOc1ccccc1)Nc1ccc2c(O)ccnc2c1 | 1 | -0.1
72 | Cc1c(CC(=O)NC[C@H]2CCCCO2)c2c(n1Cc1ccccc1)CCCC2=O | -1 | 0.16
73 | COc1ccccc1CCc1nnc(CCC(=O)N2CCN(C)C[C@@H]2C(C)C)o1 | -6 | 0.86
74 | O=C(NCCCNC(=O)c1ccco1)c1cccc(F)c1 | -24 | 2.87
75 | CC(=O)Nc1nc(C(=O)N2CCOC[C@@H]2CC(F)F)cs1 | 0 | -0.01
76 | CC1(C)C[C@H](NCCc2nnc3ccccn23)CN1Cc1ccccc1 | 0 | -0.01
77 | N#Cc1ccc(S(=O)(=O)Nc2nnc3ccccn23)cc1 | -10 | 1.32
78 | Cc1ccsc1C(=O)N1CCC[C@H]1c1nnc2ccccn12 | -5 | 0.51
79 | C[C@H](c1ccccc1)c1cc(C(=O)NCCO)on1 | -9 | 1.62
80 | c1ccc(-c2nc(-c3cn[nH]c3)c3ccccc3n2)cc1 | 0 | -0.06
81 | N#Cc1cccc(N2C(=O)NC3(CCCC3)C2=O)c1 | 38 | -3.85
82 | Cc1nc(-c2c(C#N)c(N)nc3c2CCc2cc(O)ccc2-3)c[nH]1 | 3 | -0.44
83 | COC[C@H](C)Oc1cccc(CN(C2CC2)S(=O)(=O)c2ccc(F)cc2F)c1 | 1 | -0.13
84 | C=C1CCC(NC(=O)N2CCNC2=O)CC1 | -2 | 0.25
